In the supplement of paper PMC9446081:
Hit rate of the full screen: of about 39,000 compounds, about 220 (0.56%) showed activity. The list shows a part of the results.
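Also: static incubation at 37 °C against the wild-type strain, values averaged over two biological replicates.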

These molecules were tested on Escherichia coli K-12 BW25113 (assay: relative growth (OD600 normalised to plate interquartile mean) (fraction); higher = less growth inhibition, active = 0.2 or less). Details: 50 µM; LB; incubation time: overnight (16-24 h).
For `COc1ccc(NC(=O)Nc2ccc3c(c2)C(=O)N([C@H](C)CO)C[C@@H](C)[C@@H](CN(C)CC2CCCCC2)OCCCC[C@H](C)O3)cc1`, the relative growth was inactive: 1.06.
With `C[C@@H]1CN([C@H](C)CO)S(=O)(=O)c2ccc(C#Cc3ccncc3)cc2O[C@@H]1CN(C)C(=O)c1ccncc1` the relative growth was inactive: 0.958.
For `Cc1nnsc1-c1onc(C)c1C(N)=O`, the relative growth was inactive: 0.866.
In the case of `O=C1[C@@H]2[C@H](C(=O)N1c1ccccc1)C13COC[C@H](c4ccccc4)N1C(=O)C2(C(=O)NCc1ccccc1)O3` (stereo not given in full), the relative growth is reported as inactive: 1.02.
With `C[C@H](CO)N1C[C@H](C)[C@H](CN(C)C(=O)Nc2ccc(F)cc2)Oc2ncc(-c3cc4ccccc4o3)cc2C1=O` the relative growth was inactive: 0.977.
`COc1ccc(CN(C)C[C@H]2OCCCC[C@@H](C)Oc3ccc(NC(=O)Nc4ccc(OC)cc4)cc3C(=O)N([C@H](C)CO)C[C@@H]2C)cc1` was tested, and the relative growth was inactive: 0.938.
`C[C@@H]1CN([C@H](C)CO)C(=O)c2cc(NC(=O)CCN3CCOCC3)ccc2O[C@H]1CN(C)C(=O)Nc1ccc2c(c1)OCO2` was tested, and the relative growth was inactive: 0.988.
`C[C@H](CO)N1C[C@H](C)[C@@H](CN(C)S(=O)(=O)c2cn(C)cn2)OCCCC[C@H](C)Oc2ccc(NS(=O)(=O)c3ccc(F)cc3)cc2C1=O` was tested, and the relative growth was inactive: 1.02.
For `C[C@@H]1CCCCO[C@@H](CN(C)C(=O)C2CCCCC2)[C@@H](C)CN([C@@H](C)CO)C(=O)c2cc(NS(=O)(=O)c3ccc(Cl)cc3)ccc2O1`, the relative growth was inactive: 0.986.
With `CC(C)NC(=N)NC(=N)Nc1ccc(Cl)cc1.Cl` the relative growth was inactive: 0.965.
With `O=C(C[C@@H]1C=C[C@@H](NC(=O)c2cccnc2)[C@@H](CO)O1)NCc1ccncn1` the relative growth was inactive: 0.965.
For `Cc1noc(C)c1NC(=O)Nc1ccc2c(c1)C(=O)N([C@@H](C)CO)C[C@H](C)[C@@H](CN(C)Cc1ccc(C(=O)Nc3ccccc3N)cc1)O2`, the relative growth was inactive: 1.01.
For `CCNC(=O)C[C@H]1CC[C@H]2[C@H](COc3ccc(NS(=O)(=O)c4ccccc4C)cc3C(=O)N2C)O1`, the relative growth was inactive: 1.
For `Cc1noc(C)c1S(=O)(=O)N(C)C[C@@H]1OCCCC[C@@H](C)Oc2ccc(NC(=O)Nc3ccccc3)cc2C(=O)N([C@@H](C)CO)C[C@H]1C`, the relative growth was inactive: 1.02.
With `C[C@H]1CCCCO[C@H](CN(C)S(C)(=O)=O)[C@@H](C)CN([C@@H](C)CO)C(=O)c2cc(NS(C)(=O)=O)ccc2O1` the relative growth was inactive: 0.971.
With `COc1cc2c(cc1OC)CN(C(=O)[C@@H]1[C@H]3C(=O)O[C@H](c4ccccc4)[C@H](c4ccccc4)N3[C@H](c3ccc(O)cc3)[C@@]13C(=O)Nc1ccc(C#CCCO)cc13)CC2` the relative growth was inactive: 1.05.
With `C[C@@H]1CN([C@H](C)CO)S(=O)(=O)c2ccc(-c3cncnc3)cc2O[C@H]1CN(C)C(=O)Cc1ccccc1` the relative growth was inactive: 0.978.
`C[C@H]1CCCCO[C@@H](CN(C)C(=O)NC2CCCCC2)[C@@H](C)CN([C@@H](C)CO)C(=O)c2cc(NC(=O)Cc3ccccc3)ccc2O1` was tested, and the relative growth was inactive: 0.997.
In the case of `COCC#Cc1ccc2c(c1)O[C@@H](CN(C)S(=O)(=O)c1cccc(OC)c1)[C@H](C)CN([C@@H](C)CO)S2(=O)=O`, the relative growth is reported as inactive: 1.03.
With `CCCN1CCC2(CC1)NC(=O)N(CC(=O)N1CCN(C(=O)OCC)CC1)C2=O` the relative growth was inactive: 0.992.
`COc1ccc(NC(=O)Nc2ccc3c(c2)C(=O)N([C@H](C)CO)C[C@@H](C)[C@@H](CN(C)Cc2ccc(C(F)(F)F)cc2)OCCCC[C@@H](C)O3)cc1` was tested, and the relative growth was inactive: 1.02.
For `O=C(N[C@H](c1ccc(Cl)cc1)c1ccsc1)C1CCN(Cc2ccc(Oc3ccccc3)cc2)CC1`, the relative growth was inactive: 1.02.
With `C[C@@H](O)CNC(=O)C(=O)NC(C)(C)C` the relative growth was inactive: 1.01.
For `CC(=O)N1CCN(CC(N)=S)CC1`, the relative growth was inactive: 1.02.
`NC/C=C/C(=O)O` was tested, and the relative growth was inactive: 1.
`C[C@@H]1CCCCO[C@H](CN(C)Cc2ccc(Cl)c(Cl)c2)[C@@H](C)CN([C@H](C)CO)C(=O)c2cc(NC(=O)Nc3ccc(F)cc3)ccc2O1` was tested, and the relative growth was inactive: 1.03.
With `C[C@H](CO)N1C[C@H](C)[C@@H](CN(C)CC2CCCCC2)Oc2c(NC(=O)Cn3cnnn3)cccc2C1=O` the relative growth was inactive: 1.
`C[C@@H]1CN([C@H](C)CO)C(=O)Cc2cc(NS(=O)(=O)c3cn(C)cn3)ccc2O[C@@H]1CN(C)S(C)(=O)=O` was tested, and the relative growth was inactive: 1.02.
`C[C@@H]1CN([C@@H](C)CO)C(=O)c2cc(NC(=O)Nc3ccc(F)cc3)ccc2O[C@@H](C)CCCCO[C@@H]1CN(C)Cc1ccc(C(F)(F)F)cc1` was tested, and the relative growth was inactive: 1.04.
`CCCCN(CCCC)[NH2+][O-]` was tested, and the relative growth was inactive: 0.997.
For `NCC[C@H]1CC[C@H](NC(=O)Nc2ccc(F)cc2)[C@@H](CO)O1`, the relative growth was inactive: 1.
In the case of `CC(C)NC(=O)Nc1ccc2c(c1)C(=O)N([C@@H](C)CO)C[C@@H](C)[C@H](CN(C)Cc1ccc(C(F)(F)F)cc1)OCCCC[C@H](C)O2`, the relative growth is reported as inactive: 1.03.
For `C[C@@H]1CN([C@@H](C)CO)C(=O)CCCn2nncc2CO[C@@H]1CN(C)C(=O)CCCN(C)C`, the relative growth was inactive: 0.989.
In the case of `CN(C)CCCNC(=O)C[C@H]1CC[C@H]2[C@@H](COC[C@@H](O)CN2C(=O)c2cc(Cl)cc(Cl)c2)O1`, the relative growth is reported as inactive: 0.968.
`O=C(O)CCNC(=O)c1ccccc1` was tested, and the relative growth was inactive: 1.03.
With `O=C(CS)NCCCCCCNC(=O)[C@@H]1C[C@@H]2C(=O)NCC(=O)N2[C@@H]1c1ccc(O)cc1` the relative growth was inactive: 1.
With `C[C@H](CO)N1C[C@H](C)[C@H](CN(C)Cc2ccc(C(=O)O)cc2)Oc2ccc(NC(=O)C3CC3)cc2CC1=O` the relative growth was inactive: 0.991.
In the case of `C[C@@H]1CN([C@H](C)CO)C(=O)c2cc(NC(=O)CCCCCC(=O)Nc3ccccc3N)ccc2O[C@@H]1CN(C)S(C)(=O)=O`, the relative growth is reported as inactive: 1.01.
In the case of `COCC#Cc1ccc2c(c1)O[C@@H](CN(C)S(C)(=O)=O)[C@@H](C)CN([C@H](C)CO)S2(=O)=O`, the relative growth is reported as inactive: 1.
For `C[C@H](CO)N1C[C@H](C)[C@H](CN(C)C(=O)Nc2cccc3ccccc23)Oc2ccc(NS(=O)(=O)c3cccs3)cc2CC1=O`, the relative growth was inactive: 0.995.
